Experimental data taken from paper PMC9911399, “Two distinct binding modes provide the RNA-binding protein RbFox with extraordinary sequence specificity”.
Residue numbers refer to the chain shown, from its start. This is one part of the list.

T1: RBFOX1 RRM RbFoxmut (Fox-RRM*) (Homo sapiens, UniProt Q9NWB1 109-208, R118D;E147R;N151S;E152T)
T1 sequence: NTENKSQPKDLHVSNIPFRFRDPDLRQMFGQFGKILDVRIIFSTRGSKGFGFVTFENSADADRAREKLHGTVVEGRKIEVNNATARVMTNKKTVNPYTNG

B1: CGAAAAG (DNA:RNA)
RNA: GGGAGACCGGAAUUCAGAUUGUCCCGAAAAGUUAAAUCCCGUCGUAGCCACCA
DNA 1: CAATCTGAATTCCGGTCTCCC
DNA 2: TGGTGGCTACGACGGGATT
B2: CAUGUCC (DNA:RNA)
RNA: B1 RNA with G26A, A27U, A28G, A29U, A30C, G31C
DNA 1: CAATCTGAATTCCGGTCTCCC
DNA 2: TGGTGGCTACGACGGGATT
B3: AACUAGG (DNA:RNA)
RNA: B1 RNA with C25A, G26A, A27C, A28U, A30G
DNA 1: CAATCTGAATTCCGGTCTCCC
DNA 2: TGGTGGCTACGACGGGATT
B4: AGUCGUU (DNA:RNA)
RNA: B1 RNA with C25A, A27U, A28C, A29G, A30U, G31U
DNA 1: CAATCTGAATTCCGGTCTCCC
DNA 2: TGGTGGCTACGACGGGATT
B5: AACCCAG (DNA:RNA)
RNA: B1 RNA with C25A, G26A, A27C, A28C, A29C
DNA 1: CAATCTGAATTCCGGTCTCCC
DNA 2: TGGTGGCTACGACGGGATT
B6: CCCCGGC (DNA:RNA)
RNA: B1 RNA with G26C, A27C, A28C, A29G, A30G, G31C
DNA 1: CAATCTGAATTCCGGTCTCCC
DNA 2: TGGTGGCTACGACGGGATT
B7: CGAGAGC (DNA:RNA)
RNA: B1 RNA with A28G, A30G, G31C
DNA 1: CAATCTGAATTCCGGTCTCCC
DNA 2: TGGTGGCTACGACGGGATT
B8: GGCCACA (DNA:RNA)
RNA: B1 RNA with C25G, A27C, A28C, A30C, G31A
DNA 1: CAATCTGAATTCCGGTCTCCC
DNA 2: TGGTGGCTACGACGGGATT
B9: AACAUCA (DNA:RNA)
RNA: B1 RNA with C25A, G26A, A27C, A29U, A30C, G31A
DNA 1: CAATCTGAATTCCGGTCTCCC
DNA 2: TGGTGGCTACGACGGGATT
B10: UUCUCCC (DNA:RNA)
RNA: GGGAGACCGGAAUUCAGAUUGUCCUUCUCCCUUAAAUCCCGUCGUAGCCACCA
DNA 1: CAATCTGAATTCCGGTCTCCC
DNA 2: TGGTGGCTACGACGGGATT
B11: UUGUCAU (DNA:RNA)
RNA: B10 RNA with C27G, C30A, C31U
DNA 1: CAATCTGAATTCCGGTCTCCC
DNA 2: TGGTGGCTACGACGGGATT
B12: ACCGGAU (DNA:RNA)
RNA: B1 RNA with C25A, G26C, A27C, A28G, A29G, G31U
DNA 1: CAATCTGAATTCCGGTCTCCC
DNA 2: TGGTGGCTACGACGGGATT
B13: CAAUUAA (DNA:RNA)
RNA: B1 RNA with G26A, A28U, A29U, G31A
DNA 1: CAATCTGAATTCCGGTCTCCC
DNA 2: TGGTGGCTACGACGGGATT
B14: UAUUGCG (DNA:RNA)
RNA: B10 RNA with U26A, C27U, C29G, C31G
DNA 1: CAATCTGAATTCCGGTCTCCC
DNA 2: TGGTGGCTACGACGGGATT
B15: UUCAGGG (DNA:RNA)
RNA: B10 RNA with U28A, C29G, C30G, C31G
DNA 1: CAATCTGAATTCCGGTCTCCC
DNA 2: TGGTGGCTACGACGGGATT
B16: GUGCGUG (DNA:RNA)
RNA: B1 RNA with C25G, G26U, A27G, A28C, A29G, A30U
DNA 1: CAATCTGAATTCCGGTCTCCC
DNA 2: TGGTGGCTACGACGGGATT
B17: GUGAUGU (DNA:RNA)
RNA: B1 RNA with C25G, G26U, A27G, A29U, A30G, G31U
DNA 1: CAATCTGAATTCCGGTCTCCC
DNA 2: TGGTGGCTACGACGGGATT
B18: GUUAAUC (DNA:RNA)
RNA: B1 RNA with C25G, G26U, A27U, A30U, G31C
DNA 1: CAATCTGAATTCCGGTCTCCC
DNA 2: TGGTGGCTACGACGGGATT
B19: ACGGACG (DNA:RNA)
RNA: B1 RNA with C25A, G26C, A27G, A28G, A30C
DNA 1: CAATCTGAATTCCGGTCTCCC
DNA 2: TGGTGGCTACGACGGGATT
B20: UCCAUUU (DNA:RNA)
RNA: B10 RNA with U26C, U28A, C29U, C30U, C31U
DNA 1: CAATCTGAATTCCGGTCTCCC
DNA 2: TGGTGGCTACGACGGGATT
B21: CCGAGCG (DNA:RNA)
RNA: B1 RNA with G26C, A27G, A29G, A30C
DNA 1: CAATCTGAATTCCGGTCTCCC
DNA 2: TGGTGGCTACGACGGGATT
B22: CCGCGCA (DNA:RNA)
RNA: B1 RNA with G26C, A27G, A28C, A29G, A30C, G31A
DNA 1: CAATCTGAATTCCGGTCTCCC
DNA 2: TGGTGGCTACGACGGGATT
B23: UGAACAU (DNA:RNA)
RNA: B1 RNA with C25U, A29C, G31U
DNA 1: CAATCTGAATTCCGGTCTCCC
DNA 2: TGGTGGCTACGACGGGATT
B24: UUCGAUG (DNA:RNA)
RNA: B10 RNA with U28G, C29A, C30U, C31G
DNA 1: CAATCTGAATTCCGGTCTCCC
DNA 2: TGGTGGCTACGACGGGATT
B25: GUGCUUU (DNA:RNA)
RNA: B10 RNA with U25G, C27G, U28C, C29U, C30U, C31U
DNA 1: CAATCTGAATTCCGGTCTCCC
DNA 2: TGGTGGCTACGACGGGATT
B26: AUCAACU (DNA:RNA)
RNA: B10 RNA with U25A, U28A, C29A, C31U
DNA 1: CAATCTGAATTCCGGTCTCCC
DNA 2: TGGTGGCTACGACGGGATT
B27: GGCACAG (DNA:RNA)
RNA: B1 RNA with C25G, A27C, A29C
DNA 1: CAATCTGAATTCCGGTCTCCC
DNA 2: TGGTGGCTACGACGGGATT
B28: AAAAAAA (DNA:RNA)
RNA: B1 RNA with C25A, G26A, G31A
DNA 1: CAATCTGAATTCCGGTCTCCC
DNA 2: TGGTGGCTACGACGGGATT
B29: UUGCCCC (DNA:RNA)
RNA: B10 RNA with C27G, U28C
DNA 1: CAATCTGAATTCCGGTCTCCC
DNA 2: TGGTGGCTACGACGGGATT
B30: CAAAGGA (DNA:RNA)
RNA: B1 RNA with G26A, A29G, A30G, G31A
DNA 1: CAATCTGAATTCCGGTCTCCC
DNA 2: TGGTGGCTACGACGGGATT
B31: GUAUCAG (DNA:RNA)
RNA: B1 RNA with C25G, G26U, A28U, A29C
DNA 1: CAATCTGAATTCCGGTCTCCC
DNA 2: TGGTGGCTACGACGGGATT

target: T1, RBFOX1 RRM RbFoxmut (Fox-RRM*); test: EMSA; HiTS-Eq, 1 nM pool, 10 min; buffer printed only for the single-RNA assays: 10 mM Tris pH 7.5, 150 mM NaCl, 3.4 mM EDTA, 0.001% NP-40, 30 C; conditions: tags: His6 N-terminal (pET28a); label: 5' 32P
Procedure, shortened: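 A pool of RNA with 7 randomized nucleotides, 5′-radiolabelled and with DNA-annealed flanks, was equilibrated at 1 nM for 10 min in 50 µL with purified RbFox RRM, wild type or mutant, across increasing protein concentrations. Free RNA was separated by 8% native PAGE, excised, reverse-transcribed, barcoded by PCR and sequenced. Relative association constants were obtained from read-count changes of each RNA species versus the control reaction and normalised to the cognate motif.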

| Binder | binding signal |
| --- | --- |
| B1 | 0.081 KA relative to UGCAUGU |
| B2 | 0.092 KA relative to UGCAUGU |
| B3 | 0.082 KA relative to UGCAUGU |
| B4 | 0.0848 KA relative to UGCAUGU |
| B5 | 0.0936 KA relative to UGCAUGU |
| B6 | 0.0573 KA relative to UGCAUGU |
| B7 | 0.0999 KA relative to UGCAUGU |
| B8 | 0.0676 KA relative to UGCAUGU |
| B9 | 0.0831 KA relative to UGCAUGU |
| B10 | 0.0686 KA relative to UGCAUGU |
| B11 | 0.11 KA relative to UGCAUGU |
| B12 | 0.06 KA relative to UGCAUGU |
| B13 | 0.0998 KA relative to UGCAUGU |
| B14 | 0.133 KA relative to UGCAUGU |
| B15 | 0.0818 KA relative to UGCAUGU |
| B16 | 0.278 KA relative to UGCAUGU |

| Binder | binding signal |
| --- | --- |
| B17 | 0.25 KA relative to UGCAUGU |
| B18 | 0.0571 KA relative to UGCAUGU |
| B19 | 0.0554 KA relative to UGCAUGU |
| B20 | 0.0801 KA relative to UGCAUGU |
| B21 | 0.124 KA relative to UGCAUGU |
| B22 | 0.164 KA relative to UGCAUGU |
| B23 | 0.0671 KA relative to UGCAUGU |
| B24 | 0.0892 KA relative to UGCAUGU |
| B25 | 0.108 KA relative to UGCAUGU |
| B26 | 0.0766 KA relative to UGCAUGU |
| B27 | 0.0846 KA relative to UGCAUGU |
| B28 | 0.0827 KA relative to UGCAUGU |
| B29 | 0.0741 KA relative to UGCAUGU |
| B30 | 0.0585 KA relative to UGCAUGU |
| B31 | 0.229 KA relative to UGCAUGU |
